In experiment [1] the target is human Mpl receptor, full length, on cells (human, UniProt P40238). Description: cell-based or functional assay.
The target in experiment [2] is murine Mpl receptor, full length, expressed on 32D cells (subclone 1A6.1) (murine, UniProt Q08351). The experiment can be described thus: cell-based or functional assay.

B1: human MGDF-1 ([…] of SEQ ID NO: 25) (ligand)
chain: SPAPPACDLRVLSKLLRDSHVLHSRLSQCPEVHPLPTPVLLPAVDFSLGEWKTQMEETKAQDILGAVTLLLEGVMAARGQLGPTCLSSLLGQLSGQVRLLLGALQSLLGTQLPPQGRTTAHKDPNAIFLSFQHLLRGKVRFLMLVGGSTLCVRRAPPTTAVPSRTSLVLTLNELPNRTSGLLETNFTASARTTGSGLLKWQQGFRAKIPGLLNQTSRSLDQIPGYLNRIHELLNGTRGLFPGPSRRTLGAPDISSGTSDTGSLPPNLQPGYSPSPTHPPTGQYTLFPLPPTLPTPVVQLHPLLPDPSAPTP
Turning to B1, the “Megakaryocytes per Well (-mur-MPL-X)” value in experiment [1] was determined as 142 megakaryocytes per well. Also, the “U/ml (- mur-MPL-X), 1A6.1 cells” value in experiment [2] worked out at 12800 U/ml.

Values taken from patent publication US5766581, “Method for treating mammals with monopegylated proteins that stimulates megakaryocyte growth and differentiation” (Amgen Inc., dated 1998).
